Laboratory results taken from paper PMC4336329 (PLoS ONE, 2015).
About 2,200 (0.71%) of roughly 310,000 compounds showed an effect of 50% or more. Effects have a minus sign here. This is one part of the list.

These compounds were tested against human ether-à-go-go-related gene (hERG) potassium channel (human, UniProt Q12809) (assay: primary screen, population patch clamp on CHO cells stably expressing hERG).
Sequence of human ether-à-go-go-related gene (hERG) potassium channel (Q12809 whole entry, looked up): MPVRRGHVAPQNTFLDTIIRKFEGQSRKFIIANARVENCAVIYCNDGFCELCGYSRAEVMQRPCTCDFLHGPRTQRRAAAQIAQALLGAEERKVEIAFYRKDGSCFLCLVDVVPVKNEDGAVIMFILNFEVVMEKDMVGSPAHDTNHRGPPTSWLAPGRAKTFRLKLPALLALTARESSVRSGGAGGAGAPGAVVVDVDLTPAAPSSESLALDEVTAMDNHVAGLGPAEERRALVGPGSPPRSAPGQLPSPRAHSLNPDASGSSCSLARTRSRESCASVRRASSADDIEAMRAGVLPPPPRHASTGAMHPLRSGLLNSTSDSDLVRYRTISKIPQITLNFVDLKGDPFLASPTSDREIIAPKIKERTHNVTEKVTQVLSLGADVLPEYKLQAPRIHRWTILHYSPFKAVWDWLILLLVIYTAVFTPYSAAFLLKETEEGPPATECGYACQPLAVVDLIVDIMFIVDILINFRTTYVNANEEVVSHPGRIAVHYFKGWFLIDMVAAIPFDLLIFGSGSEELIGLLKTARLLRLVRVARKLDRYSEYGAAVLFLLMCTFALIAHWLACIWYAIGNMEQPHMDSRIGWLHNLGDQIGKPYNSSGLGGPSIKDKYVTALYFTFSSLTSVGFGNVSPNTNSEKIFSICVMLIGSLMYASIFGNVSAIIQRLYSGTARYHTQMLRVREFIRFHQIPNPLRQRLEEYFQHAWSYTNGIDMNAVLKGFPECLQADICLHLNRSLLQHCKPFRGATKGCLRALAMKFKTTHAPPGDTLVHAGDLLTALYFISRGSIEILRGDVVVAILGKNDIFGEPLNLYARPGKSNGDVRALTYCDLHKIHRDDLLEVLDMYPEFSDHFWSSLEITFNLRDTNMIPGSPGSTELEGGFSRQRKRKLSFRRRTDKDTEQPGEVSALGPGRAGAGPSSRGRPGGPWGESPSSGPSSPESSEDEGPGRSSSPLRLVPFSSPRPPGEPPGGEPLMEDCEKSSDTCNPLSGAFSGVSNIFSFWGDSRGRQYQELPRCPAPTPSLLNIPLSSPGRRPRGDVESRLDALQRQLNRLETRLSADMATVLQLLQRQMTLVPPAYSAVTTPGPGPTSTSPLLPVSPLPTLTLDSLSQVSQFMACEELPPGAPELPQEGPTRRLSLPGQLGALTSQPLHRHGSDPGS

Row | SMILES | hERG current change (%, negative = inhibition) at 1uM [%]
1 | CCCc1cc(=O)oc2c3c(cc(OCC(=O)NCc4ccncc4)c12)OC(C)(C)CC3 | -2.85
2 | Cc1cc(C(=O)N/N=C(\CCC(=O)O)c2cccs2)c2ccccc2n1 | 10.2
3 | O=C(COc1ccc(Br)cc1)Nc1ccc([N+](=O)[O-])cn1 | 10.3
4 | Cn1c2ccccc2c2nnc(SCc3ccc4nonc4c3)nc21 | 8.6
5 | CC(C)OC(=O)C(=O)NNc1ccccc1 | -5.99
6 | COC(=O)c1ccccc1NC(=O)Nc1cnccn1 | 14.2
7 | CC(C)(C)OC(=O)N[C@@H](/C=C/c1ccccc1)C(=O)OC(C)(C)C | -1.92
8 | NC(=O)CCCC1=NS(=O)(=O)c2ccccc2N1 | 8.78
9 | O=C(CCN1C(=O)/C(=C\c2cccs2)SC1=S)NC1=NCCS1 | 6.28
10 | CCOc1ccc(/C=N/NC(=O)c2[nH]c3ccc(C)cc3c2C)cc1 | 10.8
11 | Cn1nccc1NC(=O)Nc1ccc(Cl)cc1 | 19.8
12 | O=C(c1cccs1)N1CCOCC1 | 7.08
13 | COc1cccc(OC)c1NC(=O)CN1CCN(C)CC1.O=C(O)C(=O)O | 10.4
14 | Cc1onc(-c2c(Cl)cccc2Cl)c1C(=O)c1c[nH]c(C(=O)NCCCN2CCOCC2)c1 | 5.12
15 | Cc1cccc(N(C)C(=O)c2cc(S(=O)(=O)N3CCCCC3)c[nH]2)c1 | 8.15
16 | CCN(CC)C(=O)c1cn(CCC#N)nc1-c1ccc2ccccc2c1 | 13.4
17 | CCOC(=O)C(Oc1ccc(=O)[nH]n1)C(C)=O (stereo not drawn) | -2.41
18 | CCN(CC)S(=O)(=O)c1ccc2c(c1)nc(CCC(=O)OCc1c(C)noc1C)n2C | -0.101
19 | O=C(OCCCc1cc2ccccc2c(=O)o1)c1ccco1 | 9.13
20 | CCOc1ccc(NC(=O)CCN2C(=S)NC(C)(C)CC2C)cc1 (stereo not drawn) | 2.55
21 | CCN(C(=O)COC(=O)c1ccccc1NCCO)C1CCS(=O)(=O)C1 (stereo not drawn) | 8.53
22 | COCCN(C(=O)c1cc2c(s1)CCCCC2)c1c(N)n(CC(C)C)c(=O)[nH]c1=O | 6.69
23 | CCCCN(C(=O)c1cc(=O)[nH]c2ccccc12)c1c(N)n(CCCC)c(=O)[nH]c1=O | 7.08
24 | S=c1[nH]nc(-c2ccccc2)n1C1C=CCCC1 (stereo not drawn) | 6.31

Row | SMILES | hERG current change (%, negative = inhibition) at 1uM [%]
25 | Cc1cc(C)n(-c2nnc(NC(C)(C)C)nn2)n1 | 18.6
26 | Fc1ccc(-n2c(CN3CCCCC3)n[nH]c2=S)cc1 | 11.1
27 | CC(=O)c1c(C)[nH]c(C(=O)NCc2ccc(F)cc2)c1C | 13.1
28 | COc1ccc(S(=O)(=O)n2[nH]c(=O)c(CCO)c2C)cc1 | 11.7
29 | CCOc1ccc(-n2c(=S)sc3c(=O)n(-c4ccccc4)c(SC)nc32)cc1 | 10.4
30 | COc1ccc(CCNC(=O)CSc2nc3c(c(=O)n(C)c(=O)n3C)n2C)cc1OC | 13.1
31 | CC(NC(N)=O)C(=O)OCc1ccc(Cl)cc1Cl (stereo not drawn) | 12.3
32 | Cc1cc(C)nc(SCc2ccc(C(=O)N/N=C/c3ccco3)cc2)n1 | -4.21
33 | C=CCn1c(SCc2ccccc2)nnc1-c1cccnc1 | -4.29
34 | Cc1ccccc1N1CC(C(=O)N2CC(C)CC(C)C2)CC1=O (stereo not drawn) | 0.657
35 | COc1ccc(CCNC(=O)c2c(O)c3ccccc3[nH]c2=O)cc1OC | 12.5
36 | COc1cccc(CN(C)C(=O)CNC(=O)c2cccs2)c1OC | 9.62
37 | Cc1cc(N)ccc1NC(=O)CN1CCOCC1 | 10.8
38 | COC(=O)c1cc(Cl)c(NC(=O)c2cc(OC)c(OC)c(OC)c2)cc1OC | 8.03
39 | COc1ccc(-n2nc(C(=O)NCc3ccco3)c3ccccc3c2=O)cc1 | -0.17
40 | Cc1ccnn1CCC(=O)N1CCCC(CCC(=O)N2CCN(c3ccccn3)CC2)C1 (stereo not drawn) | -11.6
41 | Cc1cc(C)cc(NC(=S)NC2CC3CCCC(C2)N3C2CCCC2)c1 (stereo not drawn) | -52.3
42 | Cc1ccc(C(=O)Nc2ccc(NC(=O)c3cccs3)cc2)cc1[N+](=O)[O-] | 15.7
43 | O=C(O)c1ccccc1NC(=O)C1CCCO1 (stereo not drawn) | 14.2
44 | Cc1cccc(OCC(=O)Nc2ncn[nH]2)c1C | 11.3
45 | O=S(=O)(Nc1ccc(N2CCOCC2)nn1)c1ccccc1 | 5.63
46 | COCCNC(=O)COC(=O)c1nsc(Cl)c1Cl | -1.11
47 | COc1ccc(CCN2C(=O)C3CC(C)=C(C)CC3C2=O)cc1OC (stereo not drawn) | 4.22
48 | CN(CC(=O)Nc1cccc(F)c1)C(=O)Cn1c(=O)oc2ccccc21 | 13.6

Row | SMILES | hERG current change (%, negative = inhibition) at 1uM [%]
49 | CCOc1ccccc1NC(=O)CCCNC(=O)Cn1cnc2sc(C)c(C)c2c1=O | 13.7
50 | CCC(CC)C(=O)NCCc1ccc(OC)c(OC)c1 | 11.9
51 | COc1ccc(CCC(C)NCc2ccc(Cl)c(Cl)c2)cc1 (stereo not drawn) | 4.58
52 | CCCCNC(=O)N1CCN(S(C)(=O)=O)CC1 | 7.1
53 | CCOC(=O)c1[nH]c(C)c(CC(C)C)c1C | 15.2
54 | O=C1CCCc2ccccc2N1Cc1cccc(Cl)c1 | 1.68
55 | Clc1ccc(OCCn2cnc3ccccc32)cc1 | 3.04
56 | Fc1ccc(-[n+]2nc(Nc3ccccc3)sc2-c2ccc(OCc3ccccc3)cc2)cc1.[Cl-] | 9.81
57 | CCCCN1CC(=O)N2[C@H]3c4cc(C)ccc4OC[C@@H]3[C@H](C(=O)OCC)[C@]2(C)C1=O | 4.72
58 | COc1ccc(-c2cc(C(=O)NCCN3CCOCC3)no2)cc1OC | 15
59 | Cc1occc1C(=O)N/N=C/C1=C(N2CCOCC2)C(=C\c2ccc(Cl)cc2Cl)/CC1 | 22.2
60 | CCCCCCn1c(=O)c(C(=O)Nc2nc(CC(=O)OCC)cs2)c(O)c2ccccc21 | 12.5
61 | COCCN(C(=S)Nc1cc(C)cc(C)c1)C(C)c1cccnc1 (stereo not drawn) | -4.04
62 | COc1ccc(Nc2nc(N)nc(CSc3nccn3C)n2)cc1 | 1.75
63 | CC(=O)Nc1cccc(NC(C)=O)n1 | 11.8
64 | Cc1ccc(-c2noc(C3CCN(C(=O)Nc4ccc(C#N)cc4)CC3)n2)o1 | -32.2
65 | Cc1nc(SCC(=O)NCCc2ccccc2)n[nH]1 | 8.05
66 | C/C(=N/NC(=O)CNC(=O)/C=C/c1ccccc1)c1ccco1 | 10.7
67 | COc1cc(/C=C2/SC(=S)N(CC3CCCO3)C2=O)ccc1O (stereo not drawn) | 13.9
68 | O=C(Cn1cc(C(=O)C(F)(F)F)c2ccccc21)N1CCOCC1 | 14.4
69 | CCCCn1c(=O)[nH]c2ccccc21 | 10.3
70 | COc1ccc(NC(=O)COc2ccccc2F)cc1S(=O)(=O)N1CCCCC1 | 8.72
71 | CC1CCCN(C(=O)C2CCC(CNc3c(N4CCCCC4)c(=O)c3=O)CC2)C1 (stereo not drawn) | -1.43
72 | O=C(COC(=O)C1CCN(c2ccc(C(F)(F)F)cn2)CC1)Nc1ccc(F)cc1[N+](=O)[O-] | 15.1

Row | SMILES | hERG current change (%, negative = inhibition) at 1uM [%]
73 | COc1ccc2cnnc(SCC(=O)Nc3ccccc3)c2c1OC | -6.53
74 | O=C(Nc1ccc(Cl)c(Cl)c1)c1ccco1 | 13.4
75 | CC1CC(C)CN(S(=O)(=O)c2ccc3c(c2)CCN3C(=O)C2CC2)C1 (stereo not drawn) | 7.95
76 | Cc1ccc(NC(=O)c2cc(-c3ccco3)nc3ccccc23)cc1S(=O)(=O)N1CCOCC1 | 11
77 | Cc1cccc(N2CC(C(=O)Nc3ccc(S(=O)(=O)NCC4CCCO4)cc3)CC2=O)c1C (stereo not drawn) | 17.3
78 | CCOC(=O)c1cnc(/N=C/N(C)C)s1 | 6.56
79 | O=C(NC1CCS(=O)(=O)C1)c1cnccn1 (stereo not drawn) | 25.6
80 | COc1ccc(CCN(Cc2nc3ccccc3c(=O)[nH]2)C(=O)C2CC2)cc1 | 10.3
81 | O=C(O)CN(Cc1ccccc1)S(=O)(=O)c1ccc(F)cc1 | 14.6
82 | On1c(-c2ccccc2Cl)nc2ncccc21 | 10.4
83 | COc1ccc(-c2nc3cnccn3c2NCc2ccccc2)cc1SC1CCCCC1.O=C(O)C(F)(F)F | 11.5
84 | O=C(/C=C/c1ccccc1Cl)c1ccc(O)cc1 | 9.98
85 | Cc1c(C)n(C)c2ccc(C(=O)NCCCN3CCN(c4ccc(F)cc4)CC3)cc12 | -11.4
86 | CC1CCCCN1CCNC(=O)C1CCN(S(=O)(=O)N2CCCCC2)CC1 (stereo not drawn) | 8.49
87 | O=C1CSCC(=O)N1c1ncc(C(F)(F)F)cc1Cl | 12.1
88 | Cc1ccc(SCc2noc(-c3c(C)noc3C)n2)cc1 | 2.27
89 | Cc1ccc(C(=O)NC2CC(C)(C)NC(C)(C)C2)c(C)c1 | 10.5
90 | O=C(NCCNc1ccc([N+](=O)[O-])cc1C(F)(F)F)c1ccc(F)cc1 | -1.03
91 | Cc1cc(Nc2cccc(Cl)c2Cl)n2ncnc2n1 | 11.3
92 | O=C(CSc1nccn1Cc1ccco1)Nc1ccccc1 | 11.6
93 | CCOc1ccc(NC(=O)C2CC(=O)NC(N3CCc4ccccc43)=N2)cc1 (stereo not drawn) | 6.62
